Source: ChEMBL document CHEMBL1201862, “PubChem BioAssay data set” (2004)
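All cell lines were grown in 96-well plates and treated with compound for 48 hours. Abbreviation: GI50, concentration required for 50% inhibition of growth.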 Activity calls are given as the source filed them. Cut-off read from the data, not from the text of the source: active = GI50 up to about 1.1 µM and inactive = higher.

What follows are compounds tested on NCI-H322M (assay: DTP human tumour cell line panel, 48 h).
For `CC(C)(C)OC(=O)NC1CCCCC1NC(=O)C(=O)NC1CCCCC1NC(=O)OC(C)(C)C` (centres undefined), the GI50 was inactive: > 100 µM.
With `COc1ccc(CNc2nc(NCc3ccc(OC)c(OC)c3)nc(NC3CCCCC3)n2)cc1` the GI50 was inactive: > 100 µM.
`NC(=S)N1N=C(c2ccc3c(c2)CCC3)CC1c1ccccc1` (centres undefined) was tested, and the GI50 was inactive: 46.3 µM.
With `O=C(O)CC(NC(=O)/C(=C/c1ccccc1O)NC(=O)c1ccccc1)C(=O)O` (centres undefined) the GI50 was inactive: > 100 µM.
For `C=C=C[P+](c1ccccc1)(c1ccccc1)c1ccccc1`, the GI50 was inactive: 35.3 µM.
For `O=C(NCCCCNCCCNC(=O)c1cc(-c2ccccc2)nc2ccccc12)c1cc(-c2ccccc2)nc2ccccc12`, the GI50 was inactive: 1.78 µM.
For `CC(C)C(Sc1nc(-c2ccccc2)c(-c2ccccc2)[nH]1)C(=O)NN` (centres undefined), the GI50 was inactive: 76.9 µM.
In the case of `CN(C)CCNc1ccc2nnn3c4ccc(Cl)cc4c(=O)c1c23`, the GI50 is reported as inactive: 3.1 µM.
With `CCOC(=O)CNC(=O)CNC(=O)CNC(=O)CNNc1c(OCc2ccccc2)c(=O)c1=O` the GI50 was inactive: > 100 µM.
With `O=C1Nc2ccc(Br)cc2/C1=N/Nc1ccc([N+](=O)[O-])cc1` the GI50 was inactive: 14 µM.
`O=c1cc(CNC2CCCC2)[nH]c(=O)[nH]1` was tested, and the GI50 was inactive: > 100 µM.
In the case of `CCOC(=O)/C=C(\C(=O)OCC)n1cc(Cl)c(=O)n(CC(=O)OCC)c1=O`, the GI50 is reported as inactive: 18.7 µM.
For `CC(=O)C(C(=O)C(C)(C)C)C(=O)C(C)(C)C`, the GI50 was inactive: > 100 µM.
In the case of `CN(C)c1ccc(/N=C2/NC(=N\c3ccccc3)/C(=N/c3ccccc3)S2)cc1`, the GI50 is reported as inactive: 58.2 µM.
With `C1COCCOP2(N3CC3)=NP(N3CC3)(=NP(N3CC3)(N3CC3)=N2)OCCOCCO1` (centres undefined) the GI50 was inactive: > 100 µM.
With `O=C1c2cc3c(cc2CC1Cc1ccc2c(c1)CCC2)CCC3` (centres undefined) the GI50 was inactive: 47.6 µM.
With `CCN1CCC(O)(/C=C/c2ccc(Cl)c(Cl)c2)C(C(=O)/C=C/c2ccc(Cl)c(Cl)c2)C1` (centres undefined) the GI50 was active: 1.03 µM.
In the case of `Oc1cc(-c2ccc[nH]2)nc2cc3c(cc12)OCO3`, the GI50 is reported as inactive: 43.9 µM.
`Cc1cccc(Cl)c1NCC(O)CN1CCN(C)CC1` (centres undefined) was tested, and the GI50 was inactive: > 100 µM.
With `Clc1cc(C(c2cc(Cl)sc2Cl)c2cc(Cl)sc2Cl)c(Cl)s1` the GI50 was inactive: > 100 µM.
With `CCCC(CCC(=O)O)(CCC(=O)O)[N+](=O)[O-]` the GI50 was inactive: > 100 µM.
In the case of `Nc1ncc2c(n1)-c1ccccc1OC2N1CCOCC1` (centres undefined), the GI50 is reported as inactive: > 100 µM.
For `Cc1ccc([C@@H]2[C@@H](C(=O)c3ccccn3)[C@H](c3ccc(C)cc3)C[C@](O)(c3ccccn3)[C@H]2C(=O)c2ccccn2)cc1`, the GI50 was inactive: 1.46 µM.
For `CCOC(=O)NC(Nc1ccc(F)cc1)(C(=O)OCC)C(F)(F)F` (centres undefined), the GI50 was inactive: > 100 µM.
In the case of `C[Si](C)(C)c1ccc(CC2(Cc3ccc([Si](C)(C)C)cc3)CCNC2)cc1`, the GI50 is reported as inactive: 3.75 µM.
`CCOC(=O)NC` was tested, and the GI50 was inactive: > 100 µM.
`COc1ccc(C[C@H]2COC(=O)[C@@H]2Cc2cc(OC)c(OC)c(OC)c2)cc1OC` was tested, and the GI50 was inactive: > 100 µM.
With `CC(=O)NC(CC(C)C)C(=O)NC(Cc1ccccc1)C(=S)N1CCCC1` (centres undefined) the GI50 was inactive: > 100 µM.
For `O=C1C=C(Cl)C(=O)C(c2ccc(Cl)cc2)=C1`, the GI50 was inactive: 42.2 µM.
In the case of `COc1ccc(C(=O)O)c(Cc2cccc3ccccc23)c1`, the GI50 is reported as inactive: > 100 µM.
`CCNC1=C(NC(=O)c2ccccc2)C(=O)c2ccccc2C1=O` was tested, and the GI50 was inactive: > 100 µM.
In the case of `CC(=O)c1ccc(OCC(O)CO)cc1` (centres undefined), the GI50 is reported as inactive: > 100 µM.
With `N#CC(C(=O)c1cccnc1Cl)c1nc2cc(C(F)(F)F)ccc2s1` (centres undefined) the GI50 was inactive: 31.6 µM.
For `COC(=O)CCC(NC(=S)N/N=C(\C)c1ccccn1)C(=O)OC` (centres undefined), the GI50 was inactive: 59.8 µM.
`CCC1(CN(C)C)CC/C(=C\c2ccc(OC)c(OC)c2)C1=O` (centres undefined) was tested, and the GI50 was inactive: > 100 µM.
For `COc1cc(/C=N/n2c(Cc3ccc(Cl)cc3)n[nH]c2=O)cc(OC)c1OC`, the GI50 was inactive: > 100 µM.
In the case of `CN(C)CCNC(=O)c1cc([N+](=O)[O-])ccn1`, the GI50 is reported as inactive: 33 µM.
For `CCN(CC)c1nc(N(C)C)c2cc(OC)ccc2n1`, the GI50 was inactive: 24.8 µM.
With `CC(=O)[C@H]1CC[C@H]2[C@@H]3CCC4=CC(=O)CC[C@]4(C)[C@H]3CC[C@]12C` [PROGESTERONE] the GI50 was inactive: 35.3 µM.
For `C[C@@H]1CC[C@@H](C)[C@](C)(CCc2ccoc2)C/C=C\C=C/1C(=O)O`, the GI50 was inactive: > 50 µM.
With `C=C=C(Sc1ccccc1)C(C)(C)O` the GI50 was inactive: > 100 µM.
For `Cc1ccc(C2=C(Cl)C(=O)C(c3ccc(C)cc3)=C(Cl)C2=O)cc1`, the GI50 was inactive: > 100 µM.
`CCc1c(N=[N+]=[N-])c2ccccc2oc1=O` was tested, and the GI50 was inactive: > 100 µM.
For `O=C(CSC(=S)N1CCOCC1)Nc1nc2c(s1)CCCC2`, the GI50 was inactive: > 100 µM.
For `[O-][n+]1c2ccccc2[n+]([O-])c2cc(Br)ccc21`, the GI50 was inactive: 6.15 µM.
With `CCOc1ccc(/C=C2/C(=O)N=C(N)N=C2N)cc1OCC` the GI50 was inactive: > 100 µM.
With `CC[C@@]1(O)C(=O)OCc2c1cc1n(c2=O)Cc2c-1nc1ccccc1c2/C=N\NC(=O)C(N)CO` (some centres undefined) the GI50 was inactive: 9.77 µM.
`CC(C)(C)[Si](C)(C)OCCOCn1cc(F)c(=O)[nH]c1=O` was tested, and the GI50 was inactive: > 100 µM.
`O=c1ccn(C2OC(CO)C(P(=O)(O)O)C2O)c(=O)[nH]1` (centres undefined) was tested, and the GI50 was inactive: > 100 µM.
With `CCOC(=O)Nn1cnnc1Cc1ccccc1` the GI50 was inactive: > 100 µM.
For `Cc1cccc(/C=N\NC(=S)N2CCCCC2)n1`, the GI50 was active: 0.047 µM.
In the case of `CC(C)=CC(=O)Oc1ccc([N+](=O)[O-])cc1`, the GI50 is reported as inactive: > 100 µM.
In the case of `Cc1nc(Cl)nc(Cl)c1C`, the GI50 is reported as inactive: > 100 µM.
For `CC1CN(c2ccc(Cl)cc2)CC(C)(C)OC(=O)O1` (centres undefined), the GI50 was inactive: > 100 µM.
`CC(C)=CC[S+]([O-])c1ccccc1NC1=CC(=O)CC(C)(C)C1` (centres undefined) was tested, and the GI50 was inactive: > 100 µM.
`CC(C)N/C(=N\C#N)NS(=O)(=O)c1cnccc1Nc1ccc(Cl)cc1` was tested, and the GI50 was inactive: > 100 µM.
`COC(=O)C1=NN2c3ccccc3C(=O)OCCC2C1` (centres undefined) was tested, and the GI50 was inactive: > 100 µM.
With `O=C1/C(=C/c2ccc(Cl)cc2)N=C(c2ccccc2)N1c1nc2ccc(Sc3ccccc3)cc2[nH]1` the GI50 was inactive: 38 µM.
In the case of `O=C(/C=C/c1ccccc1Cl)c1ccc(Cl)cc1Cl`, the GI50 is reported as inactive: 18.5 µM.
In the case of `COc1ccc(/C(CCl)=C(\Nc2ccccc2)c2ccc(OC)c(OC)c2)cc1OC`, the GI50 is reported as inactive: > 100 µM.
For `Oc1nc2c(c(-c3ccccc3Cl)n1)COC/C2=C\c1ccccc1Cl`, the GI50 was inactive: > 100 µM.
`Cn1cc(C(=O)c2ccccc2)cc(C(=O)c2ccccc2)c1=O` was tested, and the GI50 was inactive: > 100 µM.
With `COC(=O)CCC(NC(=S)N/N=C(\C)c1cnccn1)C(=O)OC` (centres undefined) the GI50 was inactive: 42.4 µM.
With `CCOC(=O)CCCSCCCC(=O)CCCSCCCC(=O)OCC` the GI50 was inactive: > 100 µM.
`CCC12CN(C(=O)OC)C3C(Br)C1CCC(=O)C32` (centres undefined) was tested, and the GI50 was inactive: > 100 µM.
`C[C@@H]1CCC2[C@@H](C)[C@@H](O[C@H]3O[C@@H]4O[C@@]5(C)CCC6[C@H](C)CCC([C@H]3C)[C@]64OO5)O[C@@H]3O[C@@]4(C)CCC1[C@@]23OO4` (some centres undefined) was tested, and the GI50 was inactive: > 25 µM.
In the case of `Cc1cc(O)c(C(C)C)cc1C(=S)Nc1ccc(Cl)cc1`, the GI50 is reported as inactive: 16 µM.
For `Clc1ccc(/C=C/c2csnn2)cc1`, the GI50 was inactive: > 100 µM.
For `CCCCN(CCCC)CCCn1cnc2ncccc2c1=O`, the GI50 was inactive: > 100 µM.
In the case of `Cn1c(=O)nc2n(-c3ccc(F)cc3)c3ccccc3nc-2c1=O`, the GI50 is reported as inactive: 27.5 µM.
For `O=c1cc(N2CCOCC2)[nH]c(=O)n1-c1cccc(Cl)c1`, the GI50 was inactive: > 100 µM.
In the case of `O=c1c2ccccc2n2c(-c3ccc(O)cc3)nnc2n1-c1ccccc1`, the GI50 is reported as inactive: 25.2 µM.
With `c1ccc2c(c1)nnn2CNc1ccc(N2CCCCC2)cc1` the GI50 was inactive: > 100 µM.
In the case of `Fc1cc(C2=C[C@H](c3ccc(Cl)cc3)NC(=S)N2)c(Cl)cc1Cl`, the GI50 is reported as inactive: 45.7 µM.
For `CCOC(=O)C12C(C(=O)OC)=C(C)N(NC(=O)Nc3ccccc3)C1(N)N(NC(=O)Nc1ccccc1)C(C)=C2C(=O)OC` (centres undefined), the GI50 was inactive: 26.7 µM.
`CCOC(=O)N1CCC(=O)C[C@@H]1C/C=C/P1(=O)O[C@H](c2ccccc2)C(C)N1C(C)C` (some centres undefined) was tested, and the GI50 was inactive: > 100 µM.
With `COc1ccc2c(c1)OCC1(O)Cc3ccccc3OC21` (centres undefined) the GI50 was inactive: > 100 µM.
With `CSc1ccc(/C=C2\N=C(c3ccccc3)N(/N=C3\C(=O)Nc4ccccc43)C2=O)cc1` the GI50 was inactive: > 100 µM.
`[O-][n+]1onc(-c2ccccc2)c1-c1no[n+]([O-])c1-c1c(-c2ccccc2)no[n+]1[O-]` was tested, and the GI50 was inactive: 22.6 µM.
In the case of `C[C@]12CC[C@H](O)CC1=CC[C@@H]1[C@@H]2CC[C@]2(C)/C(=N/OCCN3CCCC3)CC[C@@H]12`, the GI50 is reported as inactive: 17.8 µM.
`CN1C(=O)C(=CN(C)c2ccccc2)C(=O)N(C)C1=O` was tested, and the GI50 was inactive: > 100 µM.
In the case of `CN1C/C(=C\c2ccccc2[N+](=O)[O-])C(=O)/C(=C/c2ccccc2[N+](=O)[O-])C1`, the GI50 is reported as inactive: 2 µM.
In the case of `CC(=O)Nc1ncc(Sc2ccccc2C(=O)O)s1`, the GI50 is reported as inactive: > 100 µM.
For `C=C=C(C(=O)OC)[S+]([O-])c1ccccc1[N+](=O)[O-]` (centres undefined), the GI50 was inactive: > 100 µM.
`Cc1sc2nc(-c3cc([N+](=O)[O-])c(Cl)cc3Cl)c(/C=N/NC(=N)N)n2c1C` was tested, and the GI50 was inactive: 15.7 µM.
For `COc1ccc(Nc2nc(N)c(C(=O)c3cccs3)s2)cc1`, the GI50 was inactive: 7.94 µM.
With `CCOC(=O)NC(=O)c1cn(CCCOC(=O)NCCCCCCNC(=O)OCCCn2cc(C(=O)NC(=O)OCC)c(=O)[nH]c2=O)c(=O)[nH]c1=O` the GI50 was inactive: 62.4 µM.
In the case of `COC(CC1(OC)OC(=O)C=C1N)OC` (centres undefined), the GI50 is reported as inactive: > 100 µM.
With `COC(=O)/C(=N/Nc1cccc(Cl)c1)C(C(=O)C(=O)Nc1cccc(Cl)c1C)c1nc2ccccc2nc1C` (centres undefined) the GI50 was inactive: > 100 µM.
`N#CC1=C(S)N(C2OC(CO)C(O)C(O)C2O)C(c2ccccc2)=CC1c1cccs1` (centres undefined) was tested, and the GI50 was inactive: 17.1 µM.
In the case of `O=C(O)c1ccccc1NC(=S)c1ccccc1`, the GI50 is reported as inactive: 79.3 µM.
`CN(C)CCC(=O)N1C/C(=C/c2ccccc2)C(=O)/C(=C\c2ccccc2)C1` was tested, and the GI50 was inactive: 2.02 µM.
`CCOC(=O)CCC1(C(=O)OC)CCCC1=O` (centres undefined) was tested, and the GI50 was inactive: > 100 µM.
`CCOC(=O)C1C(c2ccc(Br)cc2)N(Cc2ccccc2)C(c2ccc(Br)cc2)C(C(=O)OC)S1(=O)=O` (centres undefined) was tested, and the GI50 was inactive: 61.8 µM.
